In all, about 48,000 compounds went through this assay and about 120 (0.25%) were called active. The shares of active, inactive and inconclusive entries below differ from those in the screen. Calls follow the shape of the dose curve; as a rule, active = well fitted activation curve with a large enough effect; inconclusive = small, poorly fitted or top-dose-only effect, or another doubt; inactive = no such curve, though single readings can be large or run the other way. A potency beside an inconclusive call is a rough fit, not a confirmed value.
Assay: Primary qHTS for Identification of Small Molecule Activators of Huntingtin-Antisense Promoter Activity; also: nearly all actives have a fitted effect of over 55% in size
Settings: HEK293 HTT-AS promoter firefly luciferase reporter, 24 h; activity change, positive = activation: at 57.5 µM (top of the series), percent change from vehicle, -100% = no light
Outline: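 Firefly luciferase readout (Dual-Glo, 10 min RT) after 24 h, 37 °C compound exposure (final up to 57.5 uM) of HEK293 reporter cells cultured 24 h beforehand; PTC124 at 50 uM final as control inhibitor; activity scaled vehicle 0%, zero RLU -100%.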
Potency is read from the fitted curve at half-maximal effect; tags tell the direction and shape of the fitted curve.

| Structure (SMILES) | Potency | activity change, positive = activation |
| --- | --- | --- |
| CCOc1ccc(NC(=O)CSC2=Nc3ccccc3C3=NC(CCC(=O)NCc4ccco4)C(=O)N23)cc1 (stereo not drawn) | inconclusive: 14.1 µM [activator, partial curve, poor fit] | – |
| Cc1ccc(-n2ccn(CC(=O)NCCc3ccccc3)c(=O)c2=O)cc1C | inconclusive: 25.1 µM [activator, single point] | – |
| Fc1ccc(NCc2ccccc2-c2nnc(-c3ccccc3Cl)o2)cc1 | inconclusive: 20 µM [activator, single point] | – |
| Cc1cc(C)cc(-n2c(C)cc(C(=O)C(=O)Nc3ccccc3F)c2C)c1 | inconclusive: 25.1 µM [activator, single point] | – |
| Cc1cc(C)cc(NC(=O)C2CCCN2S(=O)(=O)c2ccc3c(c2)CCCC(=O)N3)c1 (stereo not drawn) | – | inconclusive: -64.1% [activator] |
| Cc1ccc(CNC(=O)C2COc3ccccc3C2)cc1 (stereo not drawn) | inconclusive: 15.8 µM [activator, partial curve, poor fit] | – |
| Clc1ccc(-c2nc3c4cnn(-c5ccccc5Br)c4ncn3n2)c(Cl)c1 | inconclusive: 2.51 µM [activator, single point] | – |
| Cc1ccccc1NC(=O)c1sc2nc3n(c(=O)c2c1C)CCC3 | inconclusive: 8.91 µM [activator, partial curve, poor fit] | – |
| Cc1ccc(-n2nnc(-c3nc(-c4cccs4)no3)c2N)c(C)c1 | inconclusive: 1.58 µM [activator, partial curve, poor fit] | – |
| CC(=O)c1ccc(NC(=O)CCOc2ccccc2)cc1 | inconclusive: 3.55 µM [activator, full curve] | – |
| CCOc1cc2sc(N3CCC(C(=O)Nc4cc(C)cc(C)c4)CC3)nc2cc1Br | inconclusive: 15.8 µM [activator, partial curve, poor fit] | – |
| Cc1ccc(NC(=O)C(=O)NCc2ccco2)cc1 | active: 5.01 µM | – |
| CN(C(=O)CSc1nnc(-c2ccccc2F)o1)C1CCCCC1 | inconclusive: 28.2 µM [activator, single point] | – |
| Cc1nn(C(C)C(=O)N2CCN(c3ccc(Cl)cc3)CC2)c(=O)c2cc3occc3n12 (stereo not drawn) | – | inactive: -55.7% |
| c1ccc(CSc2nc3ncccc3[nH]2)cc1 | inconclusive: 11.2 µM [activator, partial curve] | – |
| CN(C)Cc1ccc(-c2nc3cccc4c3n2CCNC4=O)cc1 | inconclusive: 21.7 µM [activator, single point] | – |
| Cc1ccc(C(C)OC(=O)C2(C)CCC(C(=O)O)C2(C)C)cc1 (stereo not drawn) | – | inactive: 0.603% |
| Cc1cn2c(=O)cc(COc3ccc(Cl)cc3)nc2s1 | inconclusive: 4.47 µM [activator, partial curve] | – |

From PubChem BioAssay AID1508624 (National Center for Advancing Translational Sciences (NCATS), 2021)
